In PMC10919853:
Like-named read-outs stand apart in the source and are kept apart here. Results are given in words; binding and its absence hold for the method and conditions named. Binding seen in cells or lysates may run through a third protein. Some results given as binding are weak or reduced against the parent protein; the word gives no strength. For some of these results: Tags and fused reporters may be left off the sequences shown.

Tests used:
[1] = biological target: FLAG-Nav1.5 (pcDNA3.1-3X-FLAG-SCN5A-WT) (human) (UniProt Q14524); assay: co-IP; anti-FLAG M2 magnetic beads; lysates (1% digitonin) of tsA201 expressing FLAG-Nav1.5, with non-tagged Nav1.5 as control, 48 h after transient overexpression of one HA-tagged 14-3-3 isoform; beads washed with TBS; immunoblot
[2] = biological target: Nav1.5 (non-tagged, pcDNA3.1-SCN5A-WT) (human) (UniProt Q14524); assay: co-IP; nProtein A Sepharose beads pre-coupled with anti-Nav1.5 antibody; lysates of tsA201 cells 48 h after transient co-expression of Nav1.5 with empty vector, HA-14-3-3σ or HA-14-3-3η; immunoblot
[3] = biological target: FLAG-Nav1.5 (pcDNA3.1-3X-FLAG-SCN5A-WT) (human) (UniProt Q14524); assay: co-IP; anti-FLAG M2 magnetic beads; lysates (1% digitonin) of tsA201 expressing FLAG-Nav1.5, with non-tagged Nav1.5 as control, 48 h after transient overexpression of one HA-tagged 14-3-3 isoform; beads washed with TBS; immunoblot; remark: listed apart in the source

HA-tagged 14-3-3 β/α (pcDNA3-HA-YWHAB-WT) (from UniProt P31946-1 1-246)
binding [1]: no binding

HA-tagged 14-3-3 ε (pcDNA3-HA-YWHAE-WT) (from UniProt P62258-1 1-255)
binding [1]: no binding

B1: α1-syntrophin (protein, UniProt Q13424 1-505)
chain: MASGRRAPRTGLLELRAGAGSGAGGERWQRVLLSLAEDVLTVSPADGDPGPEPGAPREQEPAQLNGAAEPGAGPPQLPEALLLQRRRVTVRKADAGGLGISIKGGRENKMPILISKIFKGLAADQTEALFVGDAILSVNGEDLSSATHDEAVQVLKKTGKEVVLEVKYMKDVSPYFKNSTGGTSVGWDSPPASPLQRQPSSPGPTPRNFSEAKHMSLKMAYVSKRCTPNDPEPRYLEICSADGQDTLFLRAKDEASARSWATAIQAQVNTLTPRVKDELQALLAATSTAGSQDIKQIGWLTEQLPSGGTAPTLALLTEKELLLYLSLPETREALSRPARTAPLIATRLVHSGPSKGSVPYDAELSFALRTGTRHGVDTHLFSVESPQELAAWTRQLVDGCHRAAEGVQEVSTACTWNGRPCSLSVHIDKGFTLWAAEPGAARAVLLRQPFEKLQMSSDDGASLLFLDFGGAEGEIQLDLHSCPKTIVFIIHSFLSAKVTRLGLLA
binding [2]: binds

B2: HA-tagged 14-3-3η (pcDNA3-HA-YWHAH-WT) (protein, UniProt Q04917 1-246)
chain: MGDREQLLQRARLAEQAERYDDMASAMKAVTELNEPLSNEDRNLLSVAYKNVVGARRSSWRVISSIEQKTMADGNEKKLEKVKAYREKIEKELETVCNDVLSLLDKFLIKNCNDFQYESKVFYLKMKGDYYRYLAEVASGEKKNSVVEASEAAYKEAFEISKEQMQPTHPIRLGLALNFSVFYYEIQNAPEQACLLAKQAFDDAIAELDTLNEDSYKDSTLIMQLLRDNLTLWTSDQQDEEAGEGN
binding [3]: binds weakly
binding [2]: binds weakly

B3: HA-tagged 14-3-3 γ (pcDNA3-HA-YWHAG-WT) (protein, UniProt P61981 1-247)
chain: MVDREQLVQKARLAEQAERYDDMAAAMKNVTELNEPLSNEERNLLSVAYKNVVGARRSSWRVISSIEQKTSADGNEKKIEMVRAYREKIEKELEAVCQDVLSLLDNYLIKNCSETQYESKVFYLKMKGDYYRYLAEVATGEKRATVVESSEKAYSEAHEISKEHMQPTHPIRLGLALNYSVFYYEIQNAPEQACHLAKTAFDDAIAELDTLNEDSYKDSTLIMQLLRDNLTLWTSDQQDDDGGEGNN
binding [3]: no binding

B4: HA-tagged 14-3-3θ (pcDNA3-HA-YWHAQ-WT) (protein, UniProt P27348 1-245)
chain: MEKTELIQKAKLAEQAERYDDMATCMKAVTEQGAELSNEERNLLSVAYKNVVGGRRSAWRVISSIEQKTDTSDKKLQLIKDYREKVESELRSICTTVLELLDKYLIANATNPESKVFYLKMKGDYFRYLAEVACGDDRKQTIDNSQGAYQEAFDISKKEMQPTHPIRLGLALNFSVFYYEILNNPELACTLAKTAFDEAIAELDTLNEDSYKDSTLIMQLLRDNLTLWTSDSAGEECDAAEGAEN
binding [3]: no binding
